About 5,800 (2.1%) of roughly 270,000 compounds were called active. Inconclusive means that the source gave no clear call. Such entries were picked first, then a sample of the others. Calls follow the shape of the dose curve; as a rule, active = well fitted inhibition curve with a large enough effect; inconclusive = small, poorly fitted or top-dose-only effect; inactive = flat fitted curve, though single readings scatter. Potencies of inconclusive entries are doubtful fits and often do not repeat.
molecular target: Microtubule-associated protein tau (Homo sapiens) (UniProt P10636); test: qHTS for Inhibitors of Tau Fibril Formation, Thioflavin T Binding; conditions: recombinant tau K18 P301L (four-repeat tau fragment), heparin-induced fibrillization, ThT fluorescence; series mostly up to 57.4 µM; also: nearly all actives have a fitted effect of over 55% in size
Outline: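 In this qHTS, human K18 P301L tau is incubated with compound and heparin for 6 hr at 37 C, and Thioflavin T fluorescence then reports fibril load.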
% is scaled to controls: 0 for no effect and ±100 for the full control effect; potency is read from the fitted curve at half-maximal effect; tags tell the direction and shape of the fitted curve.

Chain of UniProt P10636 (P10636 whole entry, looked up, the tested form may be a part): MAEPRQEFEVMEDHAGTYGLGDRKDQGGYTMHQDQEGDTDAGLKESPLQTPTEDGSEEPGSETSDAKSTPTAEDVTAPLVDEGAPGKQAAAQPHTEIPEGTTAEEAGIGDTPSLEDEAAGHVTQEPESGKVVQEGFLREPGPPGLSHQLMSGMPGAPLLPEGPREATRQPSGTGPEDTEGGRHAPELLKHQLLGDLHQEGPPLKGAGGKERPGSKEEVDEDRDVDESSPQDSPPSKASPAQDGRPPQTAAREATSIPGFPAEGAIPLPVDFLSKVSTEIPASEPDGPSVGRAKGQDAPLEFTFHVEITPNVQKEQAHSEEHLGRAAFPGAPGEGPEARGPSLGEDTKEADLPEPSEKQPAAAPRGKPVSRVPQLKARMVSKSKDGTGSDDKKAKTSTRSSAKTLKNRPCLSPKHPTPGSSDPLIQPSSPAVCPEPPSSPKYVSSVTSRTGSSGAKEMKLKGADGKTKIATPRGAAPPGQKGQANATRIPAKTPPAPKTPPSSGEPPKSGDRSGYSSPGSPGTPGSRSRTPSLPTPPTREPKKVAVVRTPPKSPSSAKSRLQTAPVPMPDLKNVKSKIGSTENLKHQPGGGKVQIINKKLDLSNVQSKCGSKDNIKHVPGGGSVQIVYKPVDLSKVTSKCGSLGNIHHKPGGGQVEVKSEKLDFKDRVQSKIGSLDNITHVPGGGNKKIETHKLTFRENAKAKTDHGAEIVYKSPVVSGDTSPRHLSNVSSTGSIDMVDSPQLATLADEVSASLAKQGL

Row | Structure (SMILES) | Potency | activity, negative = inhibition
1 | c1ccc(C2=NNC(=NC3CC3)SC2)cc1 | inconclusive: 25.1 µM [inhibitor, partial curve] | 
2 | COc1ccc(N2CCN(CCCNC(=O)c3cc(Nc4ccc(OC)cc4OC)nc4ccccc34)CC2)cc1 | active: 17.8 µM | 
3 | Cc1c(Cl)cnc(NC(=O)COC(=O)c2ccc([N+](=O)[O-])s2)c1Cl | inconclusive: 14.1 µM [inhibitor, partial curve] | 
4 | Cc1ccccc1-c1nc2cc(N)ccc2o1 | inconclusive: 14.1 µM [inhibitor, partial curve] | 
5 | Cc1c(C(=O)N(C)C2CCCCC2)sc2nc3ccc(N)cc3n12 | inconclusive: 39.8 µM [inhibitor, single point] | 
6 | CC1(C)Cc2cccc(OCC(=O)N3CCN(c4ccccc4)CC3)c2O1 | inactive | 
7 | CCOc1ccc(-c2cc(C(=O)Oc3ccc(C#N)cc3)no2)cc1 | inconclusive: 3.98 µM [inhibitor, full curve, poor fit] | 
8 | CCCC(=O)Nc1nc(C)c(-c2csc(Nc3ccccc3OC)n2)s1 | active: 12.6 µM | 
9 | O=[N+]([O-])c1ccc(COc2ccc(CNc3ccccc3)cc2)cc1 | inconclusive: 3.98 µM [inhibitor, partial curve] | 
10 | COc1ccc(NC(=O)c2sc3nc(-c4cccnc4)ccc3c2N)cc1OC | inconclusive: 0.794 µM [inhibitor, full curve] | 
11 | C/C(Cn1cnc([N+](=O)[O-])n1)=N/NC(=O)COc1ccccc1Cl | inconclusive: 35.5 µM [inhibitor, single point] | 
12 | O=C(COc1ccc([N+](=O)[O-])cc1)Nc1ccc(C(=O)NCc2cccnc2)cc1 | inconclusive: 31.6 µM [inhibitor, single point] | 
13 | N/C(=N\OC(=O)Cc1ccc([N+](=O)[O-])cc1)c1cccc(Br)c1 | inconclusive: 31.6 µM [inhibitor, single point] | 
14 | O=C(NC1CC2CCC(C1)N2Cc1nnnn1Cc1ccco1)NC12CC3CC(CC(C3)C1)C2 (configuration not stated) | inactive | 
15 | C/C(=N\OC(=O)c1ccc(F)cc1)c1sc(-c2ccccc2)nc1C | inconclusive: 1.58 µM [inhibitor, full curve] | 
16 | CCC(=O)Nc1ccc(NC(=O)c2ccccc2)nc1 | inconclusive: 15.8 µM [inhibitor, partial curve] | 
17 | O=C(Nc1ccc([N+](=O)[O-])cc1)Nc1ccc2c(c1)OCCO2 | inconclusive: 3.98 µM [inhibitor, full curve] | 
18 | Cc1cccc(C)c1OCCCn1c(CCNC(=O)C2CCCCC2)nc2ccccc21 | inconclusive: 39.8 µM [inhibitor, single point] | 
19 | COc1ccc(-c2nc(CS(=O)CC(=O)NCc3ccccn3)c(C)o2)cc1 (configuration not stated) | inconclusive: 31.6 µM [inhibitor, single point] | 
20 | CCC(c1c(C)[nH]oc1=O)c1c(C)[nH]oc1=O | inconclusive: 25.1 µM [inhibitor, partial curve, poor fit] | 
21 | C/C=C/OC(=O)NC(c1ccccc1)[C@@]1(C(=O)OC)CCCC1=O (some centres not stated) |  | inactive: -6.13% [at 11.5 µM]
22 | CCOC(=O)Cc1csc(NC(=O)Cn2cnc3c2c(=O)n(C)c(=O)n3C)n1 | inactive | 
23 | Cc1cc(C)nc(SCC(=O)Nc2ccc(N3CCOCC3)cc2)n1 | inactive | 
24 | CC=CC1=C(C(=O)O)N2C(=O)[C@H](NC(=O)[C@H](N)c3ccc(O)cc3)[C@@H]2SC1 | active: 22.4 µM | 

Row | Structure (SMILES) | Potency | activity, negative = inhibition
25 | COc1ccc(-c2csc(NC(=O)c3ccoc3C)n2)cc1 | inconclusive: 1.58 µM [inhibitor, full curve] | 
26 | O=C(CC(c1ccc(F)cc1)c1ccco1)N1CCCC1 (configuration not stated) | inconclusive: 25.1 µM [inhibitor, single point] | 
27 | NNc1nc2c(F)cccc2s1 | active: 15.8 µM | 
28 | N#Cc1ccc(NC(=O)Nc2ccc(Cl)cc2)cc1 | inconclusive: 22.4 µM [activator, partial curve] | 
29 | CC(C)c1ccc(NC(=O)CN2C(=O)CSc3ccc(S(=O)(=O)N4CCCC4)cc32)cc1 | inactive | 
30 | Cc1noc(C)c1C(=O)Nc1c(F)cc(F)cc1Br | inactive | 
31 | NC(=O)N/N=C/c1ccc(N2CCOCC2)s1 | inconclusive: 14.1 µM [inhibitor, partial curve] | 
32 | Cc1csc(N/N=C\c2cccnc2)n1 | inconclusive: 28.2 µM [inhibitor, partial curve] | 
33 | COc1cc(/C=C2\SC(=N)N(c3ccc4c(c3)OCO4)C2=O)cc(OC)c1O | active: 3.16 µM | 
34 | COC(=O)c1sccc1S(=O)(=O)N1CCN(c2ccc(Cl)cc2)CC1 | inconclusive: 12.6 µM [inhibitor, partial curve, poor fit] | 
35 | Cc1scc(CN2CCN(c3ccc(F)cc3)CC2)c1C | inconclusive: 15.8 µM [inhibitor, partial curve] | 
36 | COc1ccc2cc(C(=O)Nc3ccc(Cl)cc3)sc(=O)c2c1OC | inconclusive: 2.82 µM [inhibitor, full curve, poor fit] | 
37 | CCCOC(=O)c1sc2nc3c(cc2c1N)C(=O)CCC3 | inconclusive: 3.16 µM [inhibitor, full curve] | 
38 | CC1=C(c2ccc(Cl)cc2)S(=O)(=O)N=C1N1CCC(C(=O)NCCc2ccco2)CC1 | inactive | 
39 | CCOC(=O)c1ccccc1NC(=O)c1cc2c(s1)-c1ccccc1SC2 | inactive | 
40 | Cc1ccc(C)n1CCN1CCN(C(=O)c2ccco2)CC1 | inconclusive: 22.4 µM [inhibitor, partial curve] | 
41 | CNCCCCCCCCSc1nc(C(C)C)ccc1C(=O)c1cccs1 | inconclusive: 39.8 µM [inhibitor, single point] | 
42 | C=CCSC1=N/C(=C\C=C\c2ccco2)C(=O)S1 | active: 12.6 µM | 
43 | OCc1cc2c(cn1)[nH]c1ccccc12 | inactive | 
44 | C=CCN1c2ccccc2[C@]23C[C@@H](C(=O)OC)N(C(=O)COCc4ccccc4)C2=NC(C(=O)OC)=C(C(=O)OC)[C@H]13 |  | inactive: -3.78% [at 11.5 µM]
45 | CC(C)OC(=O)c1cccnc1N1CCN(c2cccc(Cl)c2)CC1 | inconclusive: 25.1 µM [inhibitor, partial curve] | 
46 | O=S(=O)(Nc1cc2nc3ccccc3nc2n1Cc1ccccc1)c1ccc(Cl)cc1 | inconclusive: 15.8 µM [inhibitor, partial curve] | 
47 | CCN(CC(=O)Nc1ccc(N2CCOCC2)cc1)C(=O)COc1ccccc1OC | inactive | 
48 | CSc1ccc(S(=O)(=O)N(CC(=O)NN=C2CCN(C)CC2)c2ccc(C)cc2)cc1 | inactive | 

Row | Structure (SMILES) | Potency | activity, negative = inhibition
49 | Nc1cc([N+](=O)[O-])ccc1Nc1ccccc1 | active: 15.8 µM | 
50 | O=C1/C(=C/c2ccc(O)c(O)c2)Oc2cc(O)ccc21 | active: 14.1 µM | 
51 | Cc1cccc(N2CCN(C(=O)c3cccn3-c3nnc(N4CCCCC4)s3)CC2)c1C | inconclusive: 28.2 µM [inhibitor, single point] | 
52 | Cc1cc(C)c(C#N)c(SCC(=O)Nc2ccccc2C(N)=O)n1 | inconclusive: 12.6 µM [inhibitor, single point] | 
53 | COc1cc(S(=O)(=O)N2CCN(C(=O)c3ccccc3)CC2)c(OC)cc1Br | inactive | 
54 | C=CCOC(=O)C1=C(C)N=c2s/c(=C3\C(=O)N(CC(=O)O)c4ccccc43)c(=O)n2C1c1ccc(OC)cc1 (configuration not stated) | active: 3.98 µM | 
55 | CCCOC(=O)CSC1=C(C#N)C(c2ccccc2OC)C(C#N)C(=O)N1 (configuration not stated) | inactive | 
56 | Cc1ccc(Cl)cc1NC(=O)c1cc(CN2CCCC2)on1 | inactive | 
57 | Fc1ccccc1/C=N/n1cc(-c2ccccc2)[nH]c1=S | inconclusive: 14.1 µM [inhibitor, partial curve] | 
58 | Cc1cc(SCC(=O)Nc2ccc(O)cc2)n2ncc(-c3ccccc3)c2n1 | inconclusive: 1.12 µM [inhibitor, full curve, poor fit] | 
59 | Cc1ccc(NC2=C(CC(=O)O)C(c3ccccc3)N(c3ccc(C)cc3)C2=O)cc1 (configuration not stated) | inconclusive: 17.8 µM [inhibitor, partial curve] | 
60 | Cc1[nH]n(-c2ccccc2)c(=O)c1N=Nc1ccccc1C(=O)N1CCCCC1 | inconclusive: 14.1 µM [inhibitor, partial curve] | 
61 | CCc1c(C)nc(SCc2nc(-c3ccccc3C)no2)[nH]c1=O | inactive | 
62 | O=C(CNc1ccc(Br)cc1)c1ccc(O)cc1 | inconclusive: 17.8 µM [inhibitor, partial curve] | 
63 | O=C(/C=C/Nc1cccc(F)c1)c1ccco1 | inconclusive: 17.8 µM [inhibitor, partial curve] | 
64 | CCc1ccc(Nc2nnc(-c3cc4cc(OC)ccc4oc3=O)s2)cc1 | inconclusive: 7.08 µM [inhibitor, full curve, poor fit] | 
65 | Cc1c(Cc2ccc3c(c2)OCO3)sc(NC(=O)c2ccccc2)c1C(N)=O | inconclusive: 39.8 µM [inhibitor, single point] | 
66 | CCn1c(NC(C)=O)nc2ccccc21 | inactive | 
67 | CC(C)n1c(O)c(N=NC(=O)Cn2ccc(C(F)(F)F)n2)c2ccccc21 | inconclusive: 31.6 µM [inhibitor, single point] | 
68 | O=c1cc(CSc2ccccc2)[nH]c2ccc(F)cc12 | inactive | 
69 | CCCNc1ncnc2c1c(-c1ccccc1)cn2-c1ccc(OCC)cc1 | inconclusive: 2.51 µM [inhibitor, full curve] | 
70 | COC(=O)Cc1ccc(NC(=S)Nc2ccc(N3CCOCC3)cc2)cc1 | inconclusive: 28.2 µM [inhibitor, single point] | 
71 | O=c1c2ccccc2sn1-c1nccs1 | active: 15.8 µM | 
72 | CCc1ccc(CNC(=O)c2sc3nc[nH]c(=O)c3c2C)cc1 | inconclusive: 39.8 µM [inhibitor, single point] | 
